Measured values from the supplement of paper PMC3334620.
In all, about 33,000 sequences were measured (“E-score (-0.5 to 0.5)”: median about -0.054, highest 2% from about 0.35 on). Some of the results follow.

target: T1, Stb5 (UniProt P38699); experiment: PBM E-score (8-mer binding enrichment) (E-score (-0.5 to 0.5)); higher = stronger / more preferred TF binding; most listed sequences are background and not binding sites; settings: protein concentration: 200 nM; construct: GST-full length
T1 sequence: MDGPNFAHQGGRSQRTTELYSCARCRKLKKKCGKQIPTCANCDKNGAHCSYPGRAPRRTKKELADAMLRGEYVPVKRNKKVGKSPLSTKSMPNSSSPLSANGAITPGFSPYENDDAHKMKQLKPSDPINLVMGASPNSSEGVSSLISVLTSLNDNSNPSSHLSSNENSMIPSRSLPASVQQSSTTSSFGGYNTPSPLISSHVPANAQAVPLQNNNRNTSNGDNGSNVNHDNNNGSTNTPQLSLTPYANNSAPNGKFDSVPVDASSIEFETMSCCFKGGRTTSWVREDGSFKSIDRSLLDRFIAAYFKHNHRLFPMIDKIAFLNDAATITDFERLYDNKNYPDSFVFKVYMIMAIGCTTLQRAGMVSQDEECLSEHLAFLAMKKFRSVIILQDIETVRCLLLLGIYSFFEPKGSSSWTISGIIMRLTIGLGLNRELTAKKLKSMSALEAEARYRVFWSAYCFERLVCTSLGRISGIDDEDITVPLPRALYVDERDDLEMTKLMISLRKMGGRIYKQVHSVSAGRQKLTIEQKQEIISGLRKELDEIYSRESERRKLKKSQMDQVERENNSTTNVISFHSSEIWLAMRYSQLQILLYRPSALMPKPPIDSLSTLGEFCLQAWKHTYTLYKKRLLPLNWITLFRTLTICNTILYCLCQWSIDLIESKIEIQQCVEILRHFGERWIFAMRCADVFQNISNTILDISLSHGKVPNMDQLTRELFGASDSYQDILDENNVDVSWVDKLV
Outline: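 GST-tagged yeast TFs (full-length or DNA-binding domain) were made by PURExpress in vitro transcription/translation and applied at about 100-200 nM to universal all-10-mer Agilent arrays. The arrays were made double-stranded by primer extension, on fresh or once-stripped slides. Bound protein was detected with fluorescent anti-GST, and scans were normalised with masliner. Each ungapped eight-base word, pooled with its reverse complement, received an E-score (modified Wilcoxon-Mann-Whitney statistic) from the Universal PBM Analysis Suite.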

Row | Sequence | PBM E-score
1 | ACCCCGAT | 0.441
2 | AAGTGCTA | -0.112
3 | CGACGGTC | 0.315
4 | GGTTGGAC | -0.0385
5 | CAAACAGC | 0.0778
6 | AGCGTCGA | -0.188
7 | CACCTTGC | -0.217
8 | TGGCTACA | -0.144
9 | AAGGGAGA | -0.357
10 | CAAACAAA | -0.202
11 | GATCATGA | 0.0141
12 | CTCATCAC | -0.162
13 | GCTGCATA | -0.136
14 | GCCGTTAC | 0.247
15 | CTCCTGTC | -0.26
16 | ATAAGGAG | 0.0498
17 | GGTGGCAC | 0.0756
18 | CTCCATCA | 0.0765
19 | AATGGGCA | -0.356
20 | GCCACAGA | 0.0915
21 | CAACTATC | -0.141
22 | CGAAACCG | 0.161

Row | Sequence | PBM E-score
23 | CTGTGCAC | -0.176
24 | CAACAAGG | -0.219
25 | AAAAATGA | -0.0682
26 | AGTCAAGC | -0.3
27 | ACGCGCCA | -0.191
28 | ATTTTTAA | 0.268
29 | CAAAGGAC | -0.166
30 | CGATGGTA | 0.00643
31 | GCAACACC | 0.267
32 | CCACCCAA | 0.0149
33 | GACGATGC | -0.0743
34 | AATAACGG | 0.294
35 | TCGCGAGA | -0.0702
36 | AGCTACGG | 0.0512
37 | GACGGACC | 0.316
38 | GCTATGGA | -0.0548
39 | AGGGAACT | -0.079
40 | ATGAATAA | -0.00507
41 | CGCGCATC | 0.0394
42 | ACGCAGAT | 0.0541
43 | CTCCTTCC | -0.25
44 | CAAGGGCG | -0.0091

Row | Sequence | PBM E-score
45 | ATCTGGGA | -0.219
46 | CAAGATTC | -0.0416
47 | ACGCTTGG | -0.319
48 | CTGCTTGA | -0.286
49 | AGATAGAC | -0.0476
50 | GAATCAGA | -0.137
51 | ATATATGC | 0.205
52 | AGCTAACT | -0.0801
53 | ACAGTATC | -0.244
54 | ATCACGTC | 0.00329
55 | AGACTGTA | -0.142
56 | ACTGTCGG | 0.33
57 | AATGGTGG | -0.261
58 | AATGAAAA | -0.0147
59 | TCCTGAAA | -0.158
60 | CCGTCCAC | 0.16
61 | AGGTTATC | -0.0681
62 | CTACGATA | -0.261
63 | GTGGCGCA | -0.139
64 | GCTCTAAA | -0.194
65 | ATAAAAGA | 0.0611
66 | CCTATTCC | 0.0769

Row | Sequence | PBM E-score
67 | GCGTCGGA | 0.345
68 | AGATCGGG | 0.279
69 | AATGATTG | -0.226
70 | AGGTTCGA | -0.0817
71 | ACAAAGCC | 0.0182
72 | AGGATCCG | 0.0973
73 | ATGTCAAC | -0.0658
74 | TAAACACA | -0.181
75 | TCCAGCAA | -0.319
76 | AGTCGGAA | 0.221
77 | GGGTGACA | 0.0889
78 | CGGTTTAG | 0.091
79 | AGCAGAAT | -0.144
80 | ACTCTGGA | -0.206
81 | CTGAATTC | -0.00247
82 | CCTAGAAG | 0.00997
83 | ATGTTCCA | -0.287
84 | AGGCTTCA | -0.0644
85 | ACTGGAGG | -0.0702
86 | AGATAGTG | -0.036
87 | GCTACCAA | -0.0037
88 | GCCGCGCC | 0.221

Row | Sequence | PBM E-score
89 | AAAGCCTG | -0.0993
90 | GCGTTGCA | -0.118
91 | GCCTCGAA | 0.00087
92 | TAGGCCTA | -0.235
93 | ATAGGGAC | -0.218
94 | ATATCATC | -0.0238
95 | CTAAACCA | 0.0819
96 | AATGTGAA | -0.198
97 | ACGGATTA | 0.0462
98 | ACTGCGCT | -0.0575
99 | TCGTACCA | -0.0376
100 | CCAGTCTC | -0.224
101 | GCCAAGCC | 0.003
102 | CCACCACG | 0.0362
103 | AACCTCAC | -0.215
104 | CTGGGATA | 0.0438
105 | AATGATGA | -0.257
106 | TCGTTTAA | -0.278
107 | AGAATTTA | -0.0876
108 | TCGCGACA | -0.054
109 | AAGCATGA | -0.105
